Data taken from article PMC9911399, “Two distinct binding modes provide the RNA-binding protein RbFox with extraordinary sequence specificity”.
Positions count from the first letter of the chain named. Some of the results follow.

T1: RBFOX1 RRM (Homo sapiens, UniProt Q9NWB1 109-208)
T1 sequence: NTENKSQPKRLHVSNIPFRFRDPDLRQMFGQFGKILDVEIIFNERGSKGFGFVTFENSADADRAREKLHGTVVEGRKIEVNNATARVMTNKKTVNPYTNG

B1: AGCCUCU (DNA:RNA)
RNA: GGGAGACCGGAAUUCAGAUUGUCCAGCCUCUUUAAAUCCCGUCGUAGCCACCA
DNA 1: CAATCTGAATTCCGGTCTCCC
DNA 2: TGGTGGCTACGACGGGATT
B2: GAGAGAA (DNA:RNA)
RNA: GGGAGACCGGAAUUCAGAUUGUCCGAGAGAAUUAAAUCCCGUCGUAGCCACCA
DNA 1: CAATCTGAATTCCGGTCTCCC
DNA 2: TGGTGGCTACGACGGGATT
B3: UUAGAAA (DNA:RNA)
RNA: B2 RNA with G25U, A26U, G27A, A28G, G29A
DNA 1: CAATCTGAATTCCGGTCTCCC
DNA 2: TGGTGGCTACGACGGGATT
B4: CUAAAUC (DNA:RNA)
RNA: B2 RNA with G25C, A26U, G27A, G29A, A30U, A31C
DNA 1: CAATCTGAATTCCGGTCTCCC
DNA 2: TGGTGGCTACGACGGGATT
B5: CGUAGAG (DNA:RNA)
RNA: B2 RNA with G25C, A26G, G27U, A31G
DNA 1: CAATCTGAATTCCGGTCTCCC
DNA 2: TGGTGGCTACGACGGGATT
B6: GGUGAGG (DNA:RNA)
RNA: B1 RNA with A25G, C27U, C28G, U29A, C30G, U31G
DNA 1: CAATCTGAATTCCGGTCTCCC
DNA 2: TGGTGGCTACGACGGGATT
B7: CCACUCU (DNA:RNA)
RNA: B1 RNA with A25C, G26C, C27A
DNA 1: CAATCTGAATTCCGGTCTCCC
DNA 2: TGGTGGCTACGACGGGATT
B8: GGGUCGA (DNA:RNA)
RNA: B2 RNA with A26G, A28U, G29C, A30G
DNA 1: CAATCTGAATTCCGGTCTCCC
DNA 2: TGGTGGCTACGACGGGATT
B9: CCGUGGG (DNA:RNA)
RNA: B2 RNA with G25C, A26C, A28U, A30G, A31G
DNA 1: CAATCTGAATTCCGGTCTCCC
DNA 2: TGGTGGCTACGACGGGATT

What follows are binders tested against T1, RBFOX1 RRM (assay: EMSA; HiTS-Eq, 1 nM pool, 10 min; buffer printed only for the single-RNA assays: 10 mM Tris pH 7.5, 150 mM NaCl, 3.4 mM EDTA, 0.001% NP-40, 30 C). Conditions: tags: His6 N-terminal (pET28a); label: 5' 32P.
Procedure, shortened: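 A pool of RNA with 7 randomized nucleotides, 5′-radiolabelled and with DNA-annealed flanks, was equilibrated at 1 nM for 10 min in 50 µL with purified RbFox RRM, wild type or mutant, across increasing protein concentrations. Free RNA was separated by 8% native PAGE, excised, reverse-transcribed, barcoded by PCR and sequenced. Relative association constants were obtained from read-count changes of each RNA species versus the control reaction and normalised to the cognate motif.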

Q: Which binding signal does the source give for B1 here?
A: The binding signal was 0.00899 KA relative to UGCAUGU.

Q: How did the binding signal turn out when B2 was run?
A: The binding signal was 0.0113 KA relative to UGCAUGU.

Q: How did the binding signal turn out when B3 was run?
A: Its binding signal is 0.0116 KA relative to UGCAUGU.

Q: For B4, which binding signal is on record?
A: Its binding signal is 0.00515 KA relative to UGCAUGU.

Q: How did the binding signal turn out when B5 was run?
A: Its binding signal is 0.01 KA relative to UGCAUGU.

Q: Which binding signal does the source give for B6 here?
A: Its binding signal is 0.0135 KA relative to UGCAUGU.

Q: Which binding signal does the source give for B7 here?
A: The binding signal was 0.000345 KA relative to UGCAUGU.

Q: For B8, which binding signal is on record?
A: The binding signal was 0.0159 KA relative to UGCAUGU.

Q: Which binding signal does the source give for B9 here?
A: The binding signal was 0.00973 KA relative to UGCAUGU.
